The text below walks through data of paper PMC7819943, “Rice protein-binding microarrays: a tool to detect cis-acting elements near promoter regions in rice”.

The list shows a part of the results.

The assay addresses T1, OsWOX13 (Oryza sativa, UniProt Q5QMM3 1-267).
T1 sequence: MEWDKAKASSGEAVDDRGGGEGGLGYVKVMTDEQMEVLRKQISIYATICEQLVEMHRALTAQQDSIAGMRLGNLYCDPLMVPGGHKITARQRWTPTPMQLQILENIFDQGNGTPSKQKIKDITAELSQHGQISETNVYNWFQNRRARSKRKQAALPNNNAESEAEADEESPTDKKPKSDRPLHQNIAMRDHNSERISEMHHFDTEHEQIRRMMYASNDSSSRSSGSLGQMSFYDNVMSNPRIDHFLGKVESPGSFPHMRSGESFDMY
Briefly: protein-binding microarray (RPBM); PBS, 2% BSA, 51.3 ng/ul salmon testes DNA, 50 uM zinc acetate, 200 nM TF, 25 C, 1 h; high values mean tight binding. Conditions: protein: recombinant; tags: N-terminal polyhistidine and DsRed monomer fusion (pET32a); label: CyDye5-dUTP incorporated in the synthesized complementary strand; 3' TTTTT single-stranded linker to array surface; dsDNA, one strand shown. Put shortly:
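Binding signal here means per-feature fluorescence intensity in arbitrary units. The values were read on an Axon 4000B scanner after a custom Agilent array, double-stranded by primer extension with Cy5-dUTP, was incubated with 200 nM protein at 25 °C for 1 h in PBS with 2% BSA, salmon testes DNA and 50 µM zinc acetate, then washed. The proteins were transcription factors with an N-terminal polyhistidine tag and DsRed, expressed in E. coli BL21-CodonPlus and purified on Ni–NTA.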
As to “ATTAACAATTATGCAACGGTTGACACTAGCTAGCGTACACCGGAGTCACCTAGTGCAG”, the binding signal is 4680 fluorescence intensity (a.u.).

Consider “TAATTTGTGCTAATTAGTAATTTTCATTTGTTTTGCATAGCGGAGTCACCTAGTGCAG”, for which the binding signal was 23800 fluorescence intensity (a.u.).

Regarding “ACAGACAGACAGCTCCAACCAACACTTGCACGCTCAATCGCGGAGTCACCTAGTGCAG”, the binding signal is 4830 fluorescence intensity (a.u.).

Turning to “TGGGATTGAGACCTTGCGTGAGGCTCATTGTTGTTGGGCCCGGAGTCACCTAGTGCAG”, the binding signal is 11600 fluorescence intensity (a.u.).

Regarding “TAGAATAGATTAATAGTAAACCACCTCAATAGTATGTCTACGGAGTCACCTAGTGCAG”, the binding signal is 6770 fluorescence intensity (a.u.).

On to “TTTCATAATTTGTCAGCAGCTATAATATTTTCGCTGAATACGGAGTCACCTAGTGCAG”, for which the binding signal was 3870 fluorescence intensity (a.u.).

Consider “TCGTTTCGTGGAATTTAATTAAATTTATTTTAAGGATTTTCGGAGTCACCTAGTGCAG”, for which the binding signal is 3940 fluorescence intensity (a.u.).

For “CCTGTAATTTATTTTGTTATTAGTCTACGTTTAATACTTCCGGAGTCACCTAGTGCAG”, the binding signal is 22800 fluorescence intensity (a.u.).

As for “GTCTTAAGTTGATTTATATCATCTACTATTTTCGTTCCAACGGAGTCACCTAGTGCAG”, the binding signal was 10800 fluorescence intensity (a.u.).

“AACTGCATCCATCGATTGATAGATACATGCACATAGCTGCCGGAGTCACCTAGTGCAG”: the binding signal was 7580 fluorescence intensity (a.u.).

In the case of “AACAATCTAATTAATGTGAAATATTTTCTCTGTTACAAAACGGAGTCACCTAGTGCAG”, the binding signal is 12700 fluorescence intensity (a.u.).

Turning to “TTGATGTTAATGAATCTAAATAGATATGTATGTCTAGATACGGAGTCACCTAGTGCAG”, the binding signal was 5640 fluorescence intensity (a.u.).

For the sequence “AGGTTTGACTGGTAGATATGATCGGACCGGTAGCTGAGAGCGGAGTCACCTAGTGCAG”, the binding signal is 13700 fluorescence intensity (a.u.).

On to “ATTACTTATCTGATTTACGATCCGACTTAACCACTGTATTCGGAGTCACCTAGTGCAG”, for which the binding signal was 4150 fluorescence intensity (a.u.).

As for “TTGTGTCAATCACTTTTCTCAACACTAGATCAATATCCTACGGAGTCACCTAGTGCAG”, the binding signal is 24400 fluorescence intensity (a.u.).

As to “ATATGATTGGGATTGTCATCCCTTGGGTGGGTACGGATTGCGGAGTCACCTAGTGCAG”, the binding signal was 51600 fluorescence intensity (a.u.).

With “ATCAACAATTAAATTTAATTGACTATTGTTAGAGTGCCAACGGAGTCACCTAGTGCAG”, the binding signal was 47500 fluorescence intensity (a.u.).

For the sequence “AAAATATATAATTATTATTTATTTTATTATGACATGATATCGGAGTCACCTAGTGCAG”, the binding signal is 17400 fluorescence intensity (a.u.).

Consider “GAGATAATTTCGTGAATAAAGAAACCAGACGGTGCACGTACGGAGTCACCTAGTGCAG”, for which the binding signal was 7660 fluorescence intensity (a.u.).

With “CAGGTCTAATGATTGATTGCAAAGTTAGTTATAGCATACACGGAGTCACCTAGTGCAG”, the binding signal was 42400 fluorescence intensity (a.u.).

“GAGGCGTGCTGATTGGACAAGCTAGCTAGCAATATAATGCCGGAGTCACCTAGTGCAG”: the binding signal is 11900 fluorescence intensity (a.u.).

As to “AGGTAGTAGTAAATTACTTTCAATCCTAATTCATTTGTACCGGAGTCACCTAGTGCAG”, the binding signal is 3340 fluorescence intensity (a.u.).

As for “GAATGATTTTACTGCCTTGCTAGAACTTCCAAAGATACCCCGGAGTCACCTAGTGCAG”, the binding signal was 5280 fluorescence intensity (a.u.).

Turning to “TTATGGCTAATCATGAACTAATTAGACTCAAAAGATTCGTCGGAGTCACCTAGTGCAG”, the binding signal is 23700 fluorescence intensity (a.u.).

Take “ATATGAATTGGCTATTAAATTGGTTATAGATGATTTGGAGCGGAGTCACCTAGTGCAG”: the binding signal was 31100 fluorescence intensity (a.u.).

Regarding “ACTAGCTAACTAAATTTGAAAGAGACTAGCTAGCTGCTTGCGGAGTCACCTAGTGCAG”, the binding signal was 6300 fluorescence intensity (a.u.).

Consider “TTGATAACAAAATCATCATATATTTGTTAATTTTATCAAACGGAGTCACCTAGTGCAG”, for which the binding signal was 5380 fluorescence intensity (a.u.).

Regarding “CACCGTGTTAATTTCAATTCGGAGTTTCGGGGTGTGGCACCGGAGTCACCTAGTGCAG”, the binding signal was 5740 fluorescence intensity (a.u.).

With “ATTAATGTACACGTGCCTTCAATTATATATCCGATACCAACGGAGTCACCTAGTGCAG”, the binding signal is 5010 fluorescence intensity (a.u.).

Consider “GAGATAGACCTAGGATTGTCTGTTATTGTCCTGTATCAGTCGGAGTCACCTAGTGCAG”, for which the binding signal was 3650 fluorescence intensity (a.u.).

Turning to “CTTAATTTAGAGTTGATTTTGGAGTTTCTTTTATCGTAGTCGGAGTCACCTAGTGCAG”, the binding signal is 39500 fluorescence intensity (a.u.).

As for “ATATATATATATATATATATATATATATATATATATCTGTCGGAGTCACCTAGTGCAG”, the binding signal is 19500 fluorescence intensity (a.u.).

In the case of “CTTTAAAATTGATTTGTCATCTAACTATGCTGTTGTCATGCGGAGTCACCTAGTGCAG”, the binding signal was 45400 fluorescence intensity (a.u.).

Turning to “CATGTTAATTTGCTCTCCCCGGTAACACTTCATTCTTGAACGGAGTCACCTAGTGCAG”, the binding signal is 19000 fluorescence intensity (a.u.).

Take “TTTGACATTAATCCAAACAGGTATCAACAAGAGATTACGTCGGAGTCACCTAGTGCAG”: the binding signal was 5300 fluorescence intensity (a.u.).

Consider “AGAAGCTAATTAAGTGGACTGACAATATAAAAGAGGAGATCGGAGTCACCTAGTGCAG”, for which the binding signal was 7280 fluorescence intensity (a.u.).

“AAGTGATCACTAATTAGGGATGGAGGTAGTAGAAGACTTCCGGAGTCACCTAGTGCAG”: the binding signal was 11500 fluorescence intensity (a.u.).

For the sequence “TGAATGATTGCTCTTGTGCTAAGAGAATAGACTTTATCCCCGGAGTCACCTAGTGCAG”, the binding signal is 32000 fluorescence intensity (a.u.).

As for “ATTGAGCCAGATTGAATGGGTGAAAGTTGTATACTGTAAACGGAGTCACCTAGTGCAG”, the binding signal is 5350 fluorescence intensity (a.u.).

As for “AATAGATTAATCGATTAATAGTAAACCACTTCAATGGTATCGGAGTCACCTAGTGCAG”, the binding signal is 20000 fluorescence intensity (a.u.).

Regarding “TTTCCACAATTAATTCCATTCCAATCCTCGTAATCTCCCCCGGAGTCACCTAGTGCAG”, the binding signal is 5610 fluorescence intensity (a.u.).

In the case of “GTCGCTGTTAATTAATTGACGCCAAGTCCACGGTAAGTTTCGGAGTCACCTAGTGCAG”, the binding signal is 43100 fluorescence intensity (a.u.).

Turning to “ACTAATTGTACAATTAGAGGAGAAATCGCGAGACGAATCTCGGAGTCACCTAGTGCAG”, the binding signal was 31000 fluorescence intensity (a.u.).

Take “TATGAATTGACTATTATATTGGCTATGGATGATTTGTAGTCGGAGTCACCTAGTGCAG”: the binding signal is 30100 fluorescence intensity (a.u.).

Regarding “AATTGGCTATTAAATTAACTATAGATAATTTAAAGATAATCGGAGTCACCTAGTGCAG”, the binding signal was 12600 fluorescence intensity (a.u.).

Consider “TCCTCTCATTTTAATCTATTTATCGTGGATCCCATTCCGACGGAGTCACCTAGTGCAG”, for which the binding signal was 3460 fluorescence intensity (a.u.).

Consider “AACAAAATTTACTCAATAAGGTATAAATAGAAAATCGACCCGGAGTCACCTAGTGCAG”, for which the binding signal is 5440 fluorescence intensity (a.u.).

For the sequence “GAGGACAGGATGGATTGGTGGGGAGGTGGATAAGTGGTGGCGGAGTCACCTAGTGCAG”, the binding signal was 3780 fluorescence intensity (a.u.).

Consider “AGACAATGATAGTGATAATTAACAAATTCAGTTTAAGATCCGGAGTCACCTAGTGCAG”, for which the binding signal was 19700 fluorescence intensity (a.u.).

For the sequence “CACTTACCAATTATAGGTTCATCTCTCAAGCATCTCTACGCGGAGTCACCTAGTGCAG”, the binding signal is 4080 fluorescence intensity (a.u.).

“CTTCTACAATAAACTGAAATTAATGCAGAACAAGCAGATACGGAGTCACCTAGTGCAG”: the binding signal was 4530 fluorescence intensity (a.u.).

For the sequence “TATGATTAATATTTTCTATTGTAGATGATGAAATATAAAGCGGAGTCACCTAGTGCAG”, the binding signal was 20300 fluorescence intensity (a.u.).

With “ATAATTAGAGTAATGATCAGGTTTGAGAAAGAGGATTAATCGGAGTCACCTAGTGCAG”, the binding signal is 3610 fluorescence intensity (a.u.).

For “TTTACAATTTAGATCATTTGGACAGTTAATTCCTAACATGCGGAGTCACCTAGTGCAG”, the binding signal is 7700 fluorescence intensity (a.u.).
